Measured values taken from PubChem BioAssay AID603 (National Center for Advancing Translational Sciences (NCATS), 2007).
Several values for one entry are separate records, joined by “and”; a condition that tells them apart may be missing. Equal values may be shown once. About 180 (0.25%) of roughly 71,000 compounds were called active. Inconclusive results, whose numbers are uncertain, are shown with a selection of clear calls. Calls come from the whole dose curve; as a rule, active = well fitted curve in the direction sought with a large enough effect; inconclusive = small, poorly fitted or top-dose-only effect; inactive = flat fitted curve, though single readings scatter. A potency beside an inconclusive call is a rough fit, not a confirmed value.
% is set by controls: 0 for no effect and ±100 for the full control effect; potency is the fitted concentration of half-maximal effect.

What follows are molecules tested on DNA polymerase III holoenzyme (E. coli) (assay: qHTS Assay for Inhibitors of DNA Polymerase III Holoenzyme System). Conditions: reconstituted DNA polymerase III holoenzyme replication, biochemical; series mostly up to 57.1 µM.
How it was run: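 Reconstituted *E. coli* holoenzyme (0.35 nM Pol III, 1 nM beta, 154 nM SSB, 2 nM primase) was preincubated with compound for 15 min at RT. Synthesis on 1.4 nM ssM13Gori ran 35 min, then was stopped with PicoGreen/EDTA and read as dsDNA fluorescence.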
For `C[C@@H]1c2ccccc2Cn2cc3c(c21)C(=O)c1cccc(OP(=O)(O)OCc2ccccc2)c1C3=O`, the activity change, negative = inhibition was inactive: 0.1% [at 11.4 µM]. With `O=C(CN(CC1CCCO1)C(=O)CCC(=O)Nc1ccccn1)NCC1CCCO1` (stereo unspecified) the Potency was inconclusive: 5.01 µM. With `COc1ccc2nc(N3CCCC3)c(C#N)cc2c1` the Potency was “inactive”. With `Cc1ccc2c(COC(=O)c3n[nH]c4ccccc34)cc(=O)oc2c1` the Potency was inconclusive: 6.31 µM. `CCC(c1nnnn1Cc1ccco1)N1CCC(C(N)=O)CC1` (stereo unspecified) was tested, and the Potency was inconclusive: 39.8 µM. For `CC(C)CN1CCC2(CC1)CCN(C(=O)c1cc(C(F)(F)F)cc(C(F)(F)F)c1)CC2`, the Potency was “inactive”. For `CCOc1ccc(NC(=O)CSc2nnc(C3CC3)n2N)cc1`, the Potency was inconclusive: 6.31 µM. For `Oc1cccc(O)c1O`, the Potency was active: 7.94 µM. `NC(=O)NC(CC(=O)OCC(=O)NC(=O)NCc1ccco1)c1ccc(Cl)cc1` (stereo unspecified) was tested, and the Potency was inconclusive: 6.31 µM. In the case of `CC(O)CCc1nc2ccc(C(=O)O)cc2[nH]1` (stereo unspecified), the Potency is reported as inconclusive: 6.31 µM. `Cc1noc(C)c1C(=O)OC(C(=O)NC1CCCC1)c1ccc(F)cc1` (stereo unspecified) was tested, and the Potency was inconclusive: 31.6 µM. `CSc1ccc(Cl)c(C(=O)OCC(=O)NCc2ccco2)c1` was tested, and the Potency was inconclusive: 6.31 µM. `Clc1ccccc1-c1nc(NCc2cccs2)c2ccccc2n1` was tested, and the Potency was inconclusive: 31.6 µM. With `Cc1ccc(Cn2c(=S)[nH]c3ccc(N4CCOCC4)cc3c2=O)o1` the Potency was inconclusive: 25.1 µM. For `COc1cccc2c1NC(C(=O)O)C1CC=CC21` (stereo unspecified), the Potency was active: 25.1 µM. For `COc1ccc(N(C)S(=O)(=O)c2ccc3c(c2)CCC(=O)N3)cc1`, the Potency was inconclusive: 31.6 µM. `CC(Sc1ccc2nnc(-c3ccc(F)cc3)n2n1)C(=O)O` (stereo unspecified) was tested, and the Potency was “inactive”. `O=C(Nc1cccc(F)c1)N1CCC2(CC1)CCN(C(=O)c1cc(C(F)(F)F)cc(C(F)(F)F)c1)CC2` was tested, and the Potency was “inactive”. In the case of `COc1ccc2c(c1)c(=O)oc1cc(OCC(=O)NC3CC3)ccc12`, the Potency is reported as active: 15.8 µM. `O=C(O)C1C2C=CC(C2)C1C(=O)NCCc1ccncc1` (stereo unspecified) was tested, and the Potency was inconclusive: 31.6 µM. In the case of `Cc1cc(C)c2c(=O)n(CC(=O)N3CCC(Cc4ccccc4)CC3)sc2n1`, the Potency is reported as “inactive”. In the case of `N[C@@H](Cc1ccc(O)c(O)c1)C(=O)O`, the Potency is reported as inconclusive: 39.8 µM. In the case of `O=C(Cc1ccccc1)Nn1cnc2ccccc21`, the Potency is reported as inconclusive: 6.31 µM. In the case of `Cc1nc(NC2=NCN(CCCN3CCOCC3)CN2)nc2c(C)cccc12`, the Potency is reported as inconclusive: 25.1 µM. For `COc1cc(NC(=O)c2noc3c2CCC3)c(OC)cc1Cl`, the Potency was inconclusive: 31.6 µM. `CC(C)C[C@H](NC(=O)[C@@H](NC(=O)N[C@@H](Cc1ccccc1)C(=O)O)[C@H]1CCN=C(N)N1)C(=O)N[C@H](C=O)Cc1ccccc1` was tested, and the Potency was “inactive”. For `O=C(OC1CCCCC1)c1ccc2c(c1)C1C=CCC1C(C(=O)O)N2` (stereo unspecified), the Potency was active: 20 µM. For `CN1CCN(S(=O)(=O)c2ccc(SCCOc3ccccc3)nc2)CC1`, the Potency was inconclusive: 6.31 µM. With `CN1C(=O)N(C)C2C1NC(=O)N2C` (stereo unspecified) the Potency was inconclusive: 6.31 µM. With `O=C1c2c(O)ccc(O)c2C(=O)c2c(NCCNCCO)ccc(NCCNCCO)c21` the Potency was active: 1.58 µM and active: 1 µM. With `Cc1cc(C)n2nc3nc(N4CCCCC4)nc(-c4ccco4)c3c2n1` the Potency was “inactive”. With `CCc1nc(SCC(=O)Nc2cc(C)on2)c2c(C)c(C)sc2n1` the Potency was inconclusive: 6.31 µM. With `NS(=O)(=O)c1ccc(N=Nc2ccc(O)c(C(=O)O)c2)cc1` the activity change, negative = inhibition was inactive: -10.3% [at 11.4 µM]. For `Cc1cc(=O)oc2cc(OCC(=O)N3CCCc4ccccc43)ccc12`, the Potency was inconclusive: 7.94 µM. In the case of `O=C(CSc1ccc(Cl)cc1)c1ccco1`, the Potency is reported as inconclusive: 31.6 µM. In the case of `O=C(Cc1ccc(Cl)cc1)Nc1ccc(-c2nnc(-c3ccco3)o2)cc1`, the Potency is reported as active: 20 µM. In the case of `CCCCCc1nnc(NC(=O)Cc2cccs2)s1`, the Potency is reported as inconclusive: 20 µM. In the case of `COc1ccc(OC)c(C(=O)CSc2nc3c(c(=O)n(C)c(=O)n3C)n2C(C)C)c1`, the Potency is reported as inconclusive: 6.31 µM. `CSCCC(NS(=O)(=O)c1ccc2c(c1)OCCO2)C(=O)NCCc1ccccn1` (stereo unspecified) was tested, and the Potency was inconclusive: 6.31 µM. In the case of `O=C(O)C1CSC2(c3ccc4c(c3)OCCO4)CCC(=O)N12` (stereo unspecified), the Potency is reported as inconclusive: 5.01 µM. `Cc1ccc2nc(-c3ccc(N)cc3)sc2c1S(=O)(=O)O` was tested, and the Potency was inconclusive: 39.8 µM. With `Cc1cccc(-c2noc(-c3ccccc3C(=O)NCC3CCCO3)n2)c1` (stereo unspecified) the Potency was “inactive”. For `COc1cc2cc(C(c3nnnn3C3CCCC3)N3CCc4ccccc43)c(=O)[nH]c2cc1OC` (stereo unspecified), the Potency was inconclusive: 3.98 µM. With `O=S(=O)(c1cccc(C(F)(F)F)c1)N1c2ccccc2-n2cccc2[C@H]1c1cccnc1` the activity change, negative = inhibition was inactive: -8.8% [at 11.4 µM]. In the case of `COc1cccc2c1C(=O)c1c(O)c3c(c(O)c1C2=O)C[C@@](O)(C(=O)CO)C[C@H]3O[C@H]1C[C@@H](N)[C@H](O)[C@@H](C)O1.[W]`, the Potency is reported as inconclusive: 3.16 µM. In the case of `Nc1nc(Nc2ccccc2)nc2ccccc12`, the Potency is reported as “inactive”. For `CCCn1c(SCC(=O)N2c3ccccc3Sc3ccccc32)nc2c1c(=O)n(C)c(=O)n2C`, the Potency was inconclusive: 6.31 µM. With `Cc1ccnc(NC(=O)c2c(O)c3ccccc3n(C)c2=O)c1` the Potency was inconclusive: 6.31 µM. `Cc1ccc2c(c1)NC(=O)C(CC(=O)NCCCN1CCCC1)O2` (stereo unspecified) was tested, and the Potency was “inactive”. In the case of `O=C(c1ccccc1F)N1CCc2ccccc21`, the Potency is reported as inconclusive: 5.01 µM. For `O=C1NC(c2cccs2)Nc2sc3c(c21)CCCC3` (stereo unspecified), the Potency was inconclusive: 6.31 µM. In the case of `CO/N=C(\C(=O)N[C@@H]1C(=O)N2C(C(=O)O)=C(CSc3nc(=O)c(O)nn3C)CS[C@@H]12)c1csc(N)n1`, the Potency is reported as active: 39.8 µM. `Clc1ccc(OCc2nnc(SCc3nc4ccccc4[nH]3)n2Cc2ccco2)cc1` was tested, and the Potency was “inactive”. For `O=C(c1ccc(F)cc1)c1cn[nH]c1-c1ccccc1O`, the Potency was “inactive”. In the case of `Cc1ccc(=O)n(C(C(=O)NCc2ccco2)C(=O)c2ccc(F)cc2)c1` (stereo unspecified), the Potency is reported as inconclusive: 6.31 µM. `O=C(NC1CCCCC1)C(c1cccs1)N(Cc1cccs1)C(=O)c1ccco1` (stereo unspecified) was tested, and the Potency was “inactive”. With `CC(=O)c1ccc(NC2c3ncccc3C(=O)N2Cc2ccc(F)cc2)cc1` (stereo unspecified) the Potency was inconclusive: 39.8 µM. With `COc1ccc(Cn2c(C)nc3c(c2=O)c2nc4ccccc4nc2n3Cc2ccco2)cc1` the Potency was inconclusive: 25.1 µM. With `CCN(CC)CCOCCOC(=O)C1(c2ccccc2)CCCC1` the Potency was “inactive”. `CCNc1oc(-c2cccc3ccccc23)nc1C#N` was tested, and the Potency was inconclusive: 39.8 µM. For `Cc1nnc(SCC(=O)c2cc(C)n(-c3c(C)n(C)n(-c4ccccc4)c3=O)c2C)s1`, the Potency was inconclusive: 6.31 µM. In the case of `O=C(COc1nnc2ccccn12)N1CCN(S(=O)(=O)c2ccccc2)CC1`, the Potency is reported as inconclusive: 6.31 µM. With `O=C(O)C1=CC(=C(c2ccc(O)c(C(=O)O)c2)c2ccc(O)c(C(=O)O)c2)C=CC1=O` the Potency was active: 0.0794 µM. `COC(=O)c1ccc(CSc2nc3c(c(=O)n2-c2ccc(F)cc2)SCC3)o1` was tested, and the Potency was “inactive”. `C=CC1=C(C)C2=Cc3c(C=C)c(C)c4[n]3[Sn+2][n]3c(c(C)c(CCC(=O)O)c3=CC3=NC(=C4)C(C)=C3CCC(=O)O)=CC1=N2` was tested, and the Potency was active: 39.8 µM. `CCN(c1ccccc1)S(=O)(=O)c1ccc2[nH]cc(C(=O)N3CCOCC3)c(=O)c2c1` was tested, and the Potency was inconclusive: 31.6 µM. For `CN(C)c1ccc2nc3c(C(=O)O)cc(=O)c(O)c-3oc2c1`, the Potency was active: 3.16 µM. For `CN(C)c1ccc(-c2nc(NC3CCNCC3)c3ccccc3n2)cc1`, the Potency was inconclusive: 15.8 µM. `COc1ccc(C2CC(C(F)(F)F)n3nc(C(=O)NCCN4CCOCC4)cc3N2)cc1` (stereo unspecified) was tested, and the Potency was inconclusive: 6.31 µM. With `C=C(C)CN(CC)C(=O)CSc1nc2ncc(Cl)cc2[nH]1` the Potency was inconclusive: 6.31 µM. `Nc1nc(-c2cc(-c3cccc4ccccc34)nc(N)n2)cc(-c2cccc3ccccc23)n1` was tested, and the activity change, negative = inhibition was inactive: -3.6% [at 11.4 µM]. With `C[N+]1(CCC[N+]2(C)C[C@H]3[C@H](C2)[C@H]2C=C[C@@H]3CC2)CCOCC1` (stereo partly specified) the activity change, negative = inhibition was inactive: 0.5% [at 11.4 µM]. With `COc1ccc2[nH]c3c(=O)n(CCCCC(=O)N4CCC(C(N)=O)CC4)c(=S)[nH]c3c2c1` the Potency was inconclusive: 31.6 µM. With `CN1CCN(c2ncc3nc(-c4cc(F)cc(F)c4)c(=O)n(C)c3n2)CC1` the Potency was “inactive”. With `CCOC(=O)c1c(C)oc2cc(Br)c(O)c(Br)c12` the Potency was “inactive”. In the case of `Cc1cc(NC(=O)CCCC(=O)N(CC(=O)NC2CCCCC2)c2ccccc2)no1`, the Potency is reported as inconclusive: 6.31 µM. In the case of `COC(=O)CCn1nnc(-c2ccc(C(C)C)cc2)n1`, the Potency is reported as inconclusive: 6.31 µM. `O=C(OCc1ccc2c(c1)OCO2)c1ccc(S(=O)(=O)N2CCCCC2)cc1` was tested, and the Potency was “inactive”. `CC(C)NC(=O)Cn1nnc(-c2ccc(Cl)cc2)n1` was tested, and the Potency was inconclusive: 6.31 µM. `Cn1c(SCC(=O)NCCN2C(=O)CSC2=O)nc2ccccc2c1=O` was tested, and the Potency was inconclusive: 6.31 µM. For `O=C(C1COc2ccccc2O1)N1CCc2ccccc21` (stereo unspecified), the Potency was inconclusive: 31.6 µM. `Cc1ccc2nc(SCC(=O)Nc3c(C)n(C)n(-c4ccccc4)c3=O)[nH]c2c1` was tested, and the Potency was inconclusive: 6.31 µM. `N#Cc1cccc(NC(=O)N2CCCC3(CCN(S(=O)(=O)c4ccccc4)CC3)C2)c1` was tested, and the Potency was “inactive”. `CCn1c(COc2ccccc2)nnc1SCC(=O)NC1CCCCC1` was tested, and the Potency was inconclusive: 7.94 µM. With `CCOC(=O)C1CCN(c2c(N3CCCCCC3)c(=O)c2=O)CC1` the Potency was “inactive”. In the case of `Clc1cccc(-c2nn3c(-c4ccncc4)nnc3s2)c1`, the Potency is reported as inconclusive: 5.01 µM.
